These results are taken from US20180339031A1.

Changes are numbered by the printed parent chain.

To fix the notation:
B1: O32 antibody (antibody, human IgG1, lambda, V domains shown)
VH: [letters of about 120 residues not shown]
VL: SYVLTQPPSVSVAPGKTARITCGGNKIGHRAVHWYQQKPGQAPVLVIYYTYDRPSGIPERFSGSNSGNTATLTISRVEAGDEADYYCQVWDASRRDANVVFGGGTKLTVLG
B2: O41 antibody (antibody, human IgG1, lambda, V domains shown)
VH: [letters of about 120 residues not shown]
VL: SYVLTQPPSVSVAPGKTARITCGGNKIGHRAVHWYQQKPGQAPVLVIYYTYERPSGIPERFSGSNSGNTATLTISRVEAGDEADYYCQVWDWYSEGGVVFGGGTKLTVLG
B3: O38 antibody (antibody, human IgG1, lambda, V domains shown)
VH: [letters of about 120 residues not shown]
VL: QPVLTQPASLSASPGASASLTCTLRSGINVRDYRIFWYQQKPGSPPQYLLRYKSASDKQQGSGVPSRFSGSKDASANAGILLISGLQSEDEADYYCMIWHHDSEGHAFVFGGGTKLTVLG
B4: O35 antibody (antibody, human IgG1, lambda, V domains shown)
VH: [letters of about 120 residues not shown]
VL: QPVLTQPVSLSASPGASVSLTCTLRSDIRVRDYRIFWYQQKPGSPPQYLLRYKTDSDKQQGSGVPSRFSGSKDASANAGILLISGLQSEDEADYYCMIWHRTTGTSLVFGGGTKLTVLG
B5: O37 antibody (antibody, human IgG1, lambda, V domains shown)
VH: [letters of about 120 residues not shown]
VL: B3 VL with R31K, A55E, H101K, S103R

This assay addresses human mesothelin (hMSLN), recombinant soluble extracellular domain (human) (UniProt Q13421). As to the kind of experiment: BLI (OctetRED96), IgG on Protein A biosensors, human MSLN in solution, 1:1 global fit, n = 2.
UniProt Q13421, sequence (Q13421 other isoform, or with tags, fused parts or gaps limits assumed, form in doubt): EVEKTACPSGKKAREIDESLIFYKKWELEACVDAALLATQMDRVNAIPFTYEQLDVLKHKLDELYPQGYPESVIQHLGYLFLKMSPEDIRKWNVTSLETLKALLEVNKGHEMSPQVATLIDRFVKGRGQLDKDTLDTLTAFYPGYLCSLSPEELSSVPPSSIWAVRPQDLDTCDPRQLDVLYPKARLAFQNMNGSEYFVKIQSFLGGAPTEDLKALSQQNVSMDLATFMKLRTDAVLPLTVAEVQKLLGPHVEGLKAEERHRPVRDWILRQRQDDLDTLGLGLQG
Regarding B1, the Kd (commonly the free concentration of one partner at which half of the binding sites on the other are occupied at equilibrium, for simple one-to-one binding) was 529 nM.

In the case of B2, the Kd is 19 nM. As for B3, the figure is 168 nM. The value for B4 was 22.7 nM; that for B5 was 313 nM.
